In the supplement of paper PMC3334620:
In all, about 33,000 sequences were measured (“E-score (-0.5 to 0.5)”: median about -0.017, highest 2% from about 0.3 on). This is one part of the list.

Molecular target: T1, Sut1 (UniProt P53032)
T1 sequence: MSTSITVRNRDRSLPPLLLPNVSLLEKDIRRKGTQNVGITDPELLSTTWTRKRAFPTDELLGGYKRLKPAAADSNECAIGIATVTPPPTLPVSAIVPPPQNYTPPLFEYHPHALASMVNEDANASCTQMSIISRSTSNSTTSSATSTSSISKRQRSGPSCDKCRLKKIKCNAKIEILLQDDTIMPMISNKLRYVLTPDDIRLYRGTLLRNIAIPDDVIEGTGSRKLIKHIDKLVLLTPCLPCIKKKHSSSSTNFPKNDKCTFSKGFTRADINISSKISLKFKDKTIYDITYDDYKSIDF
Test: PBM E-score (8-mer binding enrichment) (E-score (-0.5 to 0.5)); higher = stronger / more preferred TF binding; most listed sequences are background and not binding sites
Conditions: protein concentration: 200 nM; construct: GST-full length
Procedure: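 Universal 'all 10-mer' protein binding microarrays (Agilent AMADID 015681) probed with GST-tagged S. cerevisiae TFs (full-length or DBD) made by in vitro transcription/translation (PURExpress), about 100-200 nM. Bound TF was detected with fluorescent anti-GST. Each ungapped 8-mer (which stands for itself and its reverse complement) is scored by the PBM enrichment score (E-score), a modified Wilcoxon-Mann-Whitney statistic from -0.5 to +0.5, computed with the Universal PBM Analysis Suite. Scale: above 0.35 generally sequence-specific binding.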

Sequence | PBM E-score
GCCGGCGA | 0.0246
ATTTTGCA | 0.126
AGCCGTAT | -0.0789
GACCGGCC | -0.104
CCAGTGCC | -0.303
ACGCAGCC | -0.142
AAAAGCCG | -0.0748
AAATTAGT | 0.222
AATCAAAA | 0.189
CCGCGCAC | -0.0717
GAGGCAGA | -0.257
ACGTAGTC | -0.252
CCCGCCGG | -0.17
CAATTAAC | 0.245
AATTGGCA | -0.183
AGGGGTTC | -0.181
ATCTTGAC | -0.184
CCAGTACA | -0.104
CGTGAATC | 0.146
GGTCCAGA | -0.172
GTTCCGCA | 0.0832
AGGTGGAC | -0.285
GAACGGTA | -0.167
ACGTGAAT | 0.0208
ACTGCCTG | -0.0119

Sequence | PBM E-score
AACGTACG | -0.147
GCGGCTAC | -0.181
CGTCTACC | -0.0571
ACGATGCG | -0.0696
AAGTAGAT | 0.158
CGCTCACG | 0.0735
AAACGTCC | -0.0656
ATAAAATA | 0.323
CCGCCCCG | 0.224
CGTTTTCA | 0.158
GTGTTCGA | -0.0667
ACTTCTTG | -0.0568
GCTTCACA | -0.084
AATCTCAG | -0.134
GCGAGCAC | -0.276
GCTCAAAC | 0.196
ATTATGAA | 0.209
AGTCGCAT | -0.0588
GATTGGGA | -0.0746
CTCATACC | -0.0198
GATGTCGC | -0.127
CTGGTGGC | -0.208
CGCTAGTA | 0.101
ACCCCGAC | 0.273
CGGGCTAA | -0.194

Sequence | PBM E-score
CCTTGGGA | -0.144
ACTTACCA | 0.0741
TAATAGAA | 0.21
AGTCGAGG | -0.0798
AGACAGAC | 0.0831
AGGGTCAG | -0.312
CTCAACTA | -0.0597
GTAGACTA | -0.116
ATATAGAA | 0.21
AAAGTCCA | 0.0103
GAACGAAC | 0.0882
ACTATCCT | 0.196
AGGGCTAG | -0.178
AATCCCTA | 0.0339
AGCCTGGA | -0.244
CACTTTCG | 0.0753
CACAGTTC | -0.0798
AGGTGGGG | -0.154
GTCCCTGA | -0.24
CATAGCGA | -0.031
CGTCACCC | -0.238
AAAATGGC | 0.0418
GTCCAGAA | 0.00171
GAGATGGC | 0.11
CCTTATGC | 0.0269

Sequence | PBM E-score
GAGCTATC | -0.0645
CCGTCCCG | 0.0308
ATGACTGG | -0.23
GCGGCGGA | 0.26
CCGGCAAC | 0.00605
CAAGTAGA | -0.0646
AGGGACGA | -0.112
TCTTACCA | -0.113
TGCATTAA | -0.00455
CTAGGAAA | -0.0348
CAGGGGGG | -0.419
AGCTATTG | 0.0263
CCTACCGC | -0.226
AGGTGTTC | -0.256
ATGTCGCA | -0.0146
ATACGCGC | -0.098
AGTCGTTG | -0.18
CGGAACAC | 0.25
CAGAGGGA | -0.329
AAGAAGAA | 0.189
GCGATATA | -0.0297
CGATGCAG | -0.188
ATACTTAC | 0.139
GAATCAAA | 0.134
ACTTCCTG | -0.00111

Sequence | PBM E-score
TAATGCCA | 0.0847
GCCTCAAC | -0.133
ATAAGGGG | -0.0799
ACTTATCA | -0.0107
AGTTGTCA | -0.00646
TAGACACA | -0.026
TCTATCCA | -0.0141
CCCGAATA | 0.0785
AAGTAGAC | 0.0643
AAATTATT | 0.328
AACCTGAA | -0.186
CATGGCAA | -0.109
TGCTGTAA | 0.0412
CCAACTAG | -0.0817
TTCAACAA | 0.133
GCCGAACA | 0.126
CCAATTGC | -0.0223
GGGCTTGA | -0.0194
ACACAGGG | -0.132
GGGGATCA | -0.218
AAAGTCCC | 0.0514
ACTTCGGG | 0.0676
CAAAGCAC | 0.0115
CTGTCTTC | -0.0424
ACAGCTAG | -0.199

Sequence | PBM E-score
ATCCACTG | -0.0169
TAGCGGAA | 0.0446
ATATGGAT | 0.123
ACCTTGCT | -0.0591
CGGCACGC | -0.11
TGCCAAAA | 0.101
ACTTTACG | 0.0657
AAAGTTCA | -0.00163
GTATTAAC | 0.155
CGTGGGAA | -0.235
GATAGAGC | 0.0377
CCACTAAC | -0.0741
TGCATGAA | 0.138
CACCGTCG | -0.0962
ATTTTGAA | 0.241
GACTCAAC | 0.115
CTTGCATA | 0.077
AGCAGATA | 0.0338
GATACAAC | 0.158
ATTTACGG | 0.292
ACCACTAT | -0.00765
AAAGAGGT | 0.0394
ACCCAGCG | -0.254
ACTGAGGA | -0.0529
AAGGGATT | -0.0378

Sequence | PBM E-score
ATTTAGCC | -0.00257
CCATTTAC | 0.0761
ATGATGAA | 0.231
CACATCCC | -0.243
GGCGATAA | -0.0163
AGGCCGAA | 0.0931
GACATTAC | 0.0262
GACGAGGA | -0.137
ACAAGGTG | -7e-05
AGCCGTGG | -0.256
CTCTGGTA | -0.128
AGATCGTC | -0.0781
ACCAACTG | -0.0972
TATCGCGA | 0.0753
CATAGTGG | -0.0855
AGAAGCAG | -0.0721
ACTGTACC | 0.00175
CGTAATCC | 0.0632
GAGAGACA | -0.0219
AGCCGCAG | -0.118
GTCTGCAA | -0.0577
AGCGACCC | -0.139
ATTGTCAG | -0.0386
AGGGGATC | -0.134
AGATAAGG | -0.0922

Sequence | PBM E-score
TAGTGACA | 0.256
GGTAGCTA | -0.306
ACAAGCCT | -0.234
AGGTATAT | 0.185
CTAAGGTA | 0.0558
ATTAGCGA | -0.00039
ATTACATC | 0.2
ACTTGTCC | -0.0229
CTATTGAA | 0.226
ATATTCTG | 0.102
CCAGCTCG | -0.214
TCATACAA | 0.304
CACTGGCA | -0.0547
CGGAGGCC | -0.0941
CTTACGCA | -0.0106
AATACGTC | 0.195
ATTCCGAG | 0.341
AAGCATTC | 0.0319
CGGGGACC | -0.0538
GACAAAAC | 0.224
ATTTATGC | 0.137
CTAAGGAC | -0.0474
TTAAGTAA | 0.221
AGGCGTCA | -0.281
AGTGTATG | 0.14

Sequence | PBM E-score
CAGGTTCG | -0.0044
AGACTACA | -0.132
AATCGTCT | -0.113
ACGCTTAG | 0.121
ACGTAGTA | -0.139
ACGGGCGA | -0.237
AGTGCCAG | -0.325
ACTGATGG | -0.152
ACAGGTGC | -0.123
CACGAAGA | -0.0196
ATGTCATC | -0.082
CCGGTACA | 0.0825
CAACAGCC | -0.13
ACCGTGAA | 0.00123
AGCCTACA | 0.00657
AGGGCATG | -0.194
CACTCGCC | -0.0552
GGGCCTGA | -0.288
CAGACTCG | -0.26
